Here are results for 42 compounds from US20140024677A1, “METHODS FOR INDUCING MITOCHONDRIAL BIOGENESIS” (MUSC Foundation For Research Development, priority 2012, published 2014).

The subject of assay [1] is primary renal proximal tubule cells (RPTC). The experiment in a line: cells. To be noted: Oryctolagus cuniculus, 24 h, read-out: Average Drug FCCP OCR/Control FCCP OCR.
The test system is the same in assay [2]. As to conditions: for Average uncoupled OCR ratio: 5 μM, LOPAC compounds; for Concentration of maximal effect on FCCP-OCR: 10-3000 nM; for Effect on FCCP-OCR in concentration response: 10-3000 nM (below 5 μM).
Assay [3] has the same test system. To be noted: cited from earlier work.
Setting [4] is: RPTC, 24 hr, fold change in FCCP-OCR relative to DMSO controls.
The mark [5] stands for this setting: RPTC, 10-3,000 nM, 24 h, MB = ratio to vehicle >1.15.
The mark [6] stands for this setting: RPTC, 24 hr, formoterol 30 nM, isoproterenol 10, 100, 1000 nM, BRL 37344 100, 300, 1000 nM, catecholamines 30 and 100 nM.

Like-named read-outs stand apart in the source and are kept apart here.

In the case of `Cc1cccc(C(=O)OC[C@@H]2CCCN3CCCC[C@H]23)c1` [compound 5402374], the fold induction at 5 µM in assay [1] was found to be 0.94 ± 0.04. On the same count and under the same terms, with `CC(C)(C)CC(C)(C)NCC(O)COCc1ccccc1` (stereo not drawn) [CB_1-5144510] the figure was 1.19 ± 0.08. On the same count and under the same terms, as for `Cc1cc(C)c(OCC(O)CNC(C)(C)CC(C)(C)C)c(C)c1` (stereo not drawn) [compound 5144511], the figure is 1.08 ± 0.06.

Labetalol: the “Average uncoupled OCR ratio” value in assay [2] (setting [4]) is on record as 0.86 ± 0.11. Still for that read-out and setting: as for Mitoxantrone, the figure is 1.1 ± 0.06. Turning to `CC(C)OC(=O)C(N)Cc1ccccc1` (stereo not drawn) [compound 5108436], in assay [1], the fold induction at 5 µM was 1 ± 0.11. Turning to `CCC(NC(C)C)C(O)c1ccc(O)c2[nH]c(=O)ccc12` [procaterol, (±)-(1R,2S)-rel-8-Hydroxy-5-[1-hydroxy-2-(isopropylamino)butyl]-quinolin-2(1H)-one], the “MB concentration-response phenotype (FCCP-OCR)” value in assay [2] (setting [5]) is reported as “very potent, had Michaelis-Menten type concentration-response curves”. As to Ritodrine, the “Average uncoupled OCR ratio” value in assay [2] (setting [4]) stood at 1.02 ± 0.09. For the same compound, the “MB concentration-response phenotype (FCCP-OCR)” value in assay [2] (setting [5]) is given as “very potent at low concentrations but were not MB as concentrations increased”. Consider GR 55562, for which the “Average uncoupled OCR ratio” value in assay [2] (RPTC, 24 hr, […]) worked out at 1.09 ± 0.09.

As for `CNCCc1ccc(O)c(O)c1` [N-Methyldopamine], the “Average uncoupled OCR ratio” value in assay [2] (setting [4]) amounted to 0.82 ± 0.13. Consider `CC1=CS(=O)(=O)CC1Sc1nc(C)n[nH]1` (stereo not drawn) [compound 6384391], for which the fold induction at 5 µM in assay [1] was determined as 1.14 ± 0.08. Still for that read-out and setting: with `O=C(O)CC1NCCc2ccccc21` (stereo not drawn) [compound 7562564] the figure was 0.85 ± 0.04. For (±)-Normetanephrine, the “Average uncoupled OCR ratio” value in assay [2] (RPTC, 24 hr, […]) turned out to be 1.06 ± 0.03.

For `NC[C@H](O)c1ccc(O)c(O)c1` [norepinephrine], the “Change in FCCP-OCR relative to vehicle control” value in assay [2] (setting [6]) is recorded as “No significant changes”. In addition, in assay [3], the “MB activity previously reported (Wills et al. 2012)” value is given as “not stimulate MB”.

For the compound `CCC(NC(C)C)C(O)c1ccc(O)c(O)c1` (stereo not drawn) [isoetharine], in assay [2] (setting [5]), the “MB concentration-response phenotype (FCCP-OCR)” value is given as “had no effect on MB”.

For `Cc1cc(C)c(OCC(O)CN2CCCCC2)c(C)c1` (stereo not drawn) [CB_2-5144525], the “MB at 30 nM in concentration response curve” value in assay [2] (RPTC) was “increased MB”. Moreover, in assay [2] (RPTC, 24 h), the “Concentration of maximal effect on FCCP-OCR” value is given as 30 nM; the “Effect on FCCP-OCR in concentration response” value was “significant and concentration-responsive increases”. Moreover, in assay [1], the fold induction at 5 µM worked out at 1.22 ± 0.08.

Regarding `COC(=O)c1ccc(NC(=O)CCN2CCCCC2)cc1` [CB_3-6431725], in assay [2] (RPTC), the “MB at 30 nM in concentration response curve” value is “increased MB”. Moreover, the “MB concentration-response phenotype (FCCP-OCR)” value in assay [2] (setting [5]) is recorded as “promoted full MB”. Besides, in assay [2] (RPTC, 24 h), the “Concentration of maximal effect on FCCP-OCR” value came to 100 nM; the “Effect on FCCP-OCR in concentration response” value is “significant and concentration-responsive increases”. For the same compound, in assay [1], the fold induction at 5 µM was 1.22 ± 0.04. As to `CN1CCCC(C(=O)c2ccccc2)C1` (stereo not drawn) [compound 5244600], the fold induction at 5 µM in assay [1] stood at 0.92 ± 0.1. On the same count and under the same terms, as for `O=C(CCN1CCOCC1)Nc1ccc(Cl)cc1` [compound 6435349], the figure is 1.01 ± 0.05.

As for `CCCCCCCC/C=C\CCCCCCCC(=O)NCCc1ccc(O)c(O)c1` [N-Oleoyldopamine], the “Average uncoupled OCR ratio” value in assay [2] (setting [4]) came to 0.9 ± 0.09. In the case of `C[C@H](Cc1ccc(OCC(=O)O)cc1)NC[C@H](O)c1cccc(Cl)c1.O.[Na]` (relative stereo) [BRL 37344, (±)-(R*,R*)-[4-[2-[[2-(3-Chlorophenyl)-2-hydroxyethyl]amino]propyl]phenoxy]acetic acid sodium hydrate], in assay [2], the “Change in FCCP-OCR relative to vehicle control” value is given as “No significant changes”. Also, the “MB activity previously reported (Wills et al. 2012)” value in assay [3] was “inactive”. Turning to (±)-Atenolol, in assay [2] (setting [4]), the “Average uncoupled OCR ratio” value came to 0.92 ± 0.15. With `CC(C)(C)NCC(O)c1cc(O)cc(O)c1` (stereo not drawn) [terbutaline], the “MB concentration-response phenotype (FCCP-OCR)” value in assay [2] (setting [5]) is on record as “very potent at low concentrations but were not MB as concentrations increased”.

Turning to `CC(C)(C)NCC(O)c1ccc(O)c(CO)c1` (stereo not drawn) [Salbutamol], the “MB concentration-response phenotype (FCCP-OCR)” value in assay [2] (setting [5]) is “inactive at stimulating MB”. For the compound Carvedilol, the “Average uncoupled OCR ratio” value in assay [2] (setting [4]) is recorded as 1.09 ± 0.03. Same read-out and setting: with `COC(=O)[C@@H](N)Cc1ccc(O)c(O)c1` [L-3,4- Dihydroxyphenylalanine methyl ester] the figure was 0.95 ± 0.07. As to SR 59230A, the “Average uncoupled OCR ratio” value in assay [2] (RPTC, 24 hr, […]) is 1.09 ± 0.07. With `O=C(CCN1CCCCC1)c1ccc(O)cc1` [compound 6433097], in assay [1], the fold induction at 5 µM is 1.09 ± 0.06. As to `CC(C)NC[C@H](O)c1ccc(O)c(O)c1.Cl` [isoproterenol, (R)-3,4-Dihydroxy-α-(isopropylaminomethyl)benzyl alcohol hydrochloride], the “MB concentration-response phenotype (FCCP-OCR)” value in assay [2] (setting [5]) is reported as “had no effect on MB”. In addition, the “Change in FCCP-OCR relative to vehicle control” value in assay [2] (setting [6]) is recorded as “No significant changes”. Take `CN(C)CC/C(=N\O)c1ccccc1` [compound 5533967]: the fold induction at 5 µM in assay [1] amounted to 0.99 ± 0.07.

As for Bromoacetyl alprenolol menthane, the “Average uncoupled OCR ratio” value in assay [2] (RPTC, 24 hr, […]) came out at 0.68 ± 0.2. Consider `Cn1ccnc1SCC(=O)c1ccccc1` [compound 6111462], for which the fold induction at 5 µM in assay [1] stood at 0.89 ± 0.04.

With `OCc1cc(C(O)CNCCCCCCOCCCCc2ccccc2)ccc1O` (stereo not drawn) [salmeterol], the “MB concentration-response phenotype (FCCP-OCR)” value in assay [2] (setting [5]) is “inactive at stimulating MB”. Take `CC(C)NCC(O)c1cc(O)cc(O)c1` (stereo not drawn) [Metaproterenol]: the “Average uncoupled OCR ratio” value in assay [2] (setting [4]) is 1.02 ± 0.06. In addition, the “MB concentration-response phenotype (FCCP-OCR)” value in assay [2] (setting [5]) is recorded as “very potent at low concentrations but were not MB as concentrations increased”. Regarding Ranolazine, the “Average uncoupled OCR ratio” value in assay [2] (setting [4]) was determined as 1.03 ± 0.03. The same measure, in the same setting: with Dobutamine the figure was 1.09 ± 0.14. Regarding `O=C(CCN1CCCCC1)Nc1cccc(Cl)c1` [compound 6434119], the fold induction at 5 µM in assay [1] came to 1.09 ± 0.03. The same measure, in the same setting: with `O=C(OC[C@@H]1CCCN2CCCC[C@H]12)c1cccc(Br)c1` [compound 5402373] the figure was 1.14 ± 0.05.

As to `CCC(NC1CCCC1)C(O)c1ccc(O)c(O)c1` (stereo not drawn) [cyclopentylbutanepharine], the “MB concentration-response phenotype (FCCP-OCR)” value in assay [2] (setting [5]) is given as “very potent at low concentrations but were not MB as concentrations increased”. On to `CCc1ccc(OCC(=O)c2ccc(O)c(CN(C)C)c2O)cc1` [compound 6632718], for which the fold induction at 5 µM in assay [1] stood at 1 ± 0.05. As for `CCCCCCCC/C=C\CCCCCCCC(=O)NCc1ccc(O)c(OC)c1` [Olvanil], the “Average uncoupled OCR ratio” value in assay [2] (RPTC, 24 hr, […]) was 1.12 ± 0.08. As for `CC(C)(C)NCC(O)c1cc(Cl)c(N)c(Cl)c1` (stereo not drawn) [clenbuterol], in assay [2], the “MB concentration-response phenotype (FCCP-OCR)” value was “had no effect on MB”.
